# Test results: the supplement of paper PMC3334620
# The full ranking holds about 33,000 sequences; the median of “E-score (-0.5 to 0.5)” is about -0.01, and the highest 2% start at about 0.26. The list shows a part of the results.
# Molecular target: Ste12 (UniProt P13574)
# Experiment: PBM E-score (8-mer binding enrichment) (E-score (-0.5 to 0.5)); higher = stronger / more preferred TF binding; most listed sequences are background and not binding sites
# Conditions: protein concentration: 200 nM; construct: GST-DNA-binding domain
# Summary of the method: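 Yeast transcription factors carrying a GST tag, as full-length proteins or DNA-binding domains, were produced by PURExpress in vitro transcription/translation. About 100-200 nM protein was applied to universal all-10-mer Agilent arrays, double-stranded by primer extension on fresh or once-stripped slides. Bound protein was detected with fluorescent anti-GST, and scans were normalised with masliner. The Universal PBM Analysis Suite gave each ungapped eight-base word, pooled with its reverse complement, an E-score, a modified Wilcoxon-Mann-Whitney statistic.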
row,Sequence,PBM E-score
1,AAACCGCC,0.212
2,CAGACGTA,-0.138
3,GACCAAGA,-0.107
4,TTCACAAA,0.256
5,CAGGGATA,0.0131
6,AAACGCAC,0.147
7,GAGAACTC,-0.0376
8,AACAGCCC,0.00748
9,ATCGTACG,-0.0617
10,CGCGATAG,-0.0558
11,AGTGCCTC,-0.229
12,CTGCATGC,-0.0284
13,AGGGTCTC,-0.153
14,CTCCGCGC,-0.0986
15,AATAGCCA,-0.114
16,GTTGCAAA,0.0824
17,AATTAATC,0.105
18,GATCTCAC,-0.0416
19,TCTCGTCA,-0.0159
20,ATCTATGC,-0.0236
21,CCGACTAA,0.104
22,AAGATCAA,0.101

row,Sequence,PBM E-score
1,GACACTAA,0.0103
2,ACGATTCG,-0.0626
3,GGCTTAAC,0.0764
4,ATGAGCGG,0.0137
5,CGTGGAGA,-0.109
6,AAGGGATG,-0.0502
7,TCCACCGA,-0.0902
8,CGCTGCTA,-0.0803
9,ACGTCCAA,0.122
10,GTTGGTAA,0.0911
11,GAGGCAAC,-0.329
12,AGAGAGTA,-0.0904
13,TCTGGAAA,0.0671
14,GCTTATAC,-0.174
15,CCCCTCGA,0.18
16,CAATGGGC,0.0968
17,CCCAGGTA,-0.0429
18,CCCAATAA,0.216
19,ACGAGGGG,-0.032
20,GCGTTGAC,-0.235
21,TGGAGCAA,0.117
22,AGAATAGC,0.0321

row,Sequence,PBM E-score
1,ATCCTCGG,0.0581
2,AGTCGTAC,-0.335
3,ATCAGACG,0.0895
4,ACTGCGGG,-0.12
5,AAATGACT,-0.0927
6,GCAGGTTA,-0.0591
7,ATCTGCTC,-0.0652
8,AAACACAT,0.183
9,AGGGCCCT,-0.168
10,TACTGCTA,-0.0443
11,AACAACAA,0.253
12,CAACGGCC,-0.0409
13,AAGTGTAA,0.0939
14,ACTCACTG,-0.0486
15,CACCCGTC,-0.0737
16,CAAGTGGG,-0.0691
17,AAACGCGC,0.185
18,CGTGTGCA,-0.23
19,AGCAAGGA,-0.241
20,ACAGGTAG,-0.12
21,AGATCCAC,-0.0394
22,AATGTGAC,0.0792

row,Sequence,PBM E-score
1,GAGCGGAA,0.143
2,CACGAGGG,-0.00095
3,AGGACTAA,-0.113
4,AAAGTCAT,0.124
5,AGCCATTG,0.0464
6,GCCCAGAA,-0.171
7,CCTTAGCG,0.104
8,CTAGTAGC,0.0825
9,CCAGCGGC,-0.0215
10,ACTCATAC,0.128
11,CTTAGACA,-0.0564
12,AAGGTCTA,-0.0425
13,AATCGCAT,0.134
14,ATTGAAGC,-0.061
15,TATTTGAA,0.172
16,CCAACACA,0.0801
17,CCGCTGAA,0.0841
18,CCTGCTCA,-0.163
19,ACTACGAG,-0.132
20,AAAAAGGT,0.0926
21,AAGTAACA,0.291
22,GCCTTGAC,-0.236

row,Sequence,PBM E-score
1,ACGCCGCC,-0.0333
2,AGTGAGTA,0.0652
3,AACGCGAA,0.257
4,GTCGAGTA,-0.011
5,GTTAGACA,0.0892
6,CGTGTGTA,0.0989
7,CACTTTTA,0.0509
8,AATCCGGA,0.125
9,AATGCGTG,-0.0284
10,CGCCTCAA,0.00056
11,GGCATGAC,-0.135
12,TACTAATA,0.217
13,ATAACTAT,0.0787
14,CTCATCTC,-0.0387
15,GCGCGCAC,0.153
16,CGGTGACG,-0.0125
17,CAATACCA,0.0598
18,TCTACTAA,0.056
19,GGTAGAGA,0.047
20,AAATCGCG,0.129
21,TCCATCGA,-0.0656
22,TGCGCGAA,-0.0288
